# Laboratory results: the supplement of paper PMC8728848
# The list shows a part of the results.
# B1: MSMEG3662-2a (Mycobacterium smegmatis), A0QYH7_MYCS2 (protein)
# chain: MGDTLTAGQKLERGGSLQSGNGAYTLTLQDDGNLVLYARDKAVWSTGTNGQDVVRAEVQTDGNFVLYTAEKPVWHTDTKGKKEVKLVLQDDRNLVLYAKDGPAWSSKTDTTEPPPPAPEPEKEAEVAPAAAEEAAPAPVAEPAPAEPAPAAPPPAPPAPRTYTVVSGDTLWAIAERFYGDGSKYQQIADASGIANPDLIHPGQVLTIP
# Key:
# Experiment in all cases: glycan array binding signal (z-score within array); higher = stronger binding
# Details in all cases: glycan notation: IUPAC condensed, linker removed
# Fuc(a1-2)Gal = biological target: Fuc(a1-2)Gal
# Procedure, shortened: (§1)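 The Consortium for Functional Glycomics database supplied 3228 glycan arrays, of which those lacking an available protein sequence were dropped. The binding signal, a within-array Z-score, was averaged across arrays of the same protein sequence and across linkers. Negative scores can be read as non-binding.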
# Fuc(a1-2)Gal(b1-3)GalNAc = biological target: Fuc(a1-2)Gal(b1-3)GalNAc
# Procedure, shortened: as §1
# [1] = biological target: Fuc(a1-2)Gal(b1-3)GalNAc(a1-3)[Fuc(a1-2)]Gal(b1-4)Glc
# Procedure, shortened: as §1
# [2] = biological target: Fuc(a1-2)Gal(b1-3)GalNAc(a1-3)[Fuc(a1-2)]Gal(b1-4)GlcNAc
# Procedure, shortened: as §1
# [3] = biological target: Fuc(a1-2)Gal(b1-3)GalNAc(b1-3)Gal
# Procedure, shortened: as §1
# [4] = biological target: Fuc(a1-2)Gal(b1-3)GalNAc(b1-3)Gal(a1-4)Gal(b1-4)Glc
# Procedure, shortened: as §1
# [5] = biological target: Fuc(a1-2)Gal(b1-3)GalNAc(b1-4)[Neu5Ac(a2-3)]Gal(b1-4)Glc
# Procedure, shortened: as §1
# Fuc(a1-2)Gal(b1-3)GlcNAc = biological target: Fuc(a1-2)Gal(b1-3)GlcNAc
# Procedure, shortened: as §1
# [6] = biological target: Fuc(a1-2)Gal(b1-3)GlcNAc(b1-2)Man(a1-3)[Fuc(a1-2)Gal(b1-3)GlcNAc(b1-2)Man(a1-6)]Man(b1-4)GlcNAc(b1-4)GlcNAc
# Procedure, shortened: as §1
# [7] = biological target: Fuc(a1-2)Gal(b1-3)GlcNAc(b1-2)Man(a1-3)[Fuc(a1-2)Gal(b1-3)GlcNAc(b1-2)Man(a1-6)]Man(b1-4)GlcNAc(b1-4)[Fuc(a1-6)]GlcNAc
# Procedure, shortened: as §1
# [8] = biological target: Fuc(a1-2)Gal(b1-3)GlcNAc(b1-3)Gal(b1-4)Glc
# Procedure, shortened: as §1
# [9] = biological target: Fuc(a1-2)Gal(b1-3)GlcNAc(b1-3)GalNAc
# Procedure, shortened: as §1
# [10] = biological target: Fuc(a1-2)Gal(b1-3)GlcNAc(b1-3)[Fuc(a1-2)Gal(b1-3)GlcNAc(b1-6)]GalNAc
# Procedure, shortened: as §1
# [11] = biological target: Fuc(a1-2)Gal(b1-3)GlcNAc(b1-3)[Gal(b1-4)GlcNAc(b1-6)]Gal(b1-4)Glc
# Procedure, shortened: as §1
# [12] = biological target: Fuc(a1-2)Gal(b1-3)GlcNAc(b1-3)[Neu5Ac(a2-6)Gal(b1-4)GlcNAc(b1-6)]Gal(b1-4)Glc
# Procedure, shortened: as §1
# [13] = biological target: Fuc(a1-2)Gal(b1-3)GlcNAc6S
# Procedure, shortened: as §1
# [14] = biological target: Fuc(a1-2)Gal(b1-3)[Fuc(a1-4)]GlcNAc
# Procedure, shortened: as §1
# [15] = biological target: Fuc(a1-2)Gal(b1-3)[Fuc(a1-4)]GlcNAc(b1-2)Man(a1-3)[Fuc(a1-2)Gal(b1-3)[Fuc(a1-4)]GlcNAc(b1-2)Man(a1-3)]Man(b1-4)GlcNAc(b1-4)GlcNAc
# Procedure, shortened: as §1
# [16] = biological target: Fuc(a1-2)Gal(b1-3)[Fuc(a1-4)]GlcNAc(b1-2)Man(a1-3)[Fuc(a1-2)Gal(b1-3)[Fuc(a1-4)]GlcNAc(b1-2)Man(a1-6)]Man(b1-4)GlcNAc(b1-4)[Fuc(a1-6)]GlcNAc(b1-4)[Fuc(a1-6)]GlcNAc
# Procedure, shortened: as §1
# [17] = biological target: Fuc(a1-2)Gal(b1-3)[Fuc(a1-4)]GlcNAc(b1-3)[Fuc(a1-3)[Gal(b1-4)]GlcNAc(b1-6)]Gal(b1-4)Glc
# Procedure, shortened: as §1
# [18] = biological target: Fuc(a1-2)Gal(b1-3)[Fuc(a1-4)]GlcNAc(b1-3)[Gal(b1-4)GlcNAc(b1-6)]Gal(b1-4)Glc
# Procedure, shortened: as §1
# [19] = biological target: Fuc(a1-2)Gal(b1-4)Fuc(a1-3)]GlcNAc(b1-2)Man(a1-3)[Fuc(a1-2)Gal(b1-4)[Fuc(a1-3)]GlcNAc(b1-2)Man(a1-6)]Man(b1-4)GlcNAc(b1-4)GlcNAc
# Procedure, shortened: as §1
# Fuc(a1-2)Gal(b1-4)Glc = biological target: Fuc(a1-2)Gal(b1-4)Glc
# Procedure, shortened: as §1
# Fuc(a1-2)Gal(b1-4)Glc6S = biological target: Fuc(a1-2)Gal(b1-4)Glc6S
# Procedure, shortened: as §1
# Fuc(a1-2)Gal(b1-4)GlcNAc = biological target: Fuc(a1-2)Gal(b1-4)GlcNAc
# Procedure, shortened: as §1
# [20] = biological target: Fuc(a1-2)Gal(b1-4)GlcNAc(b1-2)Man
# Procedure, shortened: as §1
# [21] = biological target: Fuc(a1-2)Gal(b1-4)GlcNAc(b1-2)Man(a1-3)[Fuc(a1-2)Gal(b1-4)GlcNAc(b1-2)Man(a1-6)]Man(b1-4)GlcNAc(b1-4)GlcNAc
# Procedure, shortened: as §1
# [22] = biological target: Fuc(a1-2)Gal(b1-4)GlcNAc(b1-2)Man(a1-3)[Fuc(a1-2)Gal(b1-4)GlcNAc(b1-2)Man(a1-6)]Man(b1-4)GlcNAc(b1-4)[Fuc(a1-6)]GlcNAc
# Procedure, shortened: as §1
# [23] = biological target: Fuc(a1-2)Gal(b1-4)GlcNAc(b1-2)[Fuc(a1-2)Gal(b1-4)GlcNAc(b1-4)]Man(a1-3)[Fuc(a1-2)Gal(b1-4)GlcNAc(b1-2)Man(a1-6)]Man(b1-4)GlcNAc(b1-4)GlcNAc
# Procedure, shortened: as §1
# [24] = biological target: Fuc(a1-2)Gal(b1-4)GlcNAc(b1-3)Gal(b1-4)GlcNAc
# Procedure, shortened: as §1
# [25] = biological target: Fuc(a1-2)Gal(b1-4)GlcNAc(b1-3)Gal(b1-4)GlcNAc(b1-2)Man(a1-3)[Fuc(a1-2)Gal(b1-4)GlcNAc(b1-3)Gal(b1-4)GlcNAc(b1-2)Man(a1-6)]Man(b1-4)GlcNAc(b1-4)GlcNAc
# Procedure, shortened: as §1
# [26] = biological target: Fuc(a1-2)Gal(b1-4)GlcNAc(b1-3)Gal(b1-4)GlcNAc(b1-3)Gal(b1-4)GlcNAc
# Procedure, shortened: as §1
# [27] = biological target: Fuc(a1-2)Gal(b1-4)GlcNAc(b1-3)GalNAc
# Procedure, shortened: as §1
# [28] = biological target: Fuc(a1-2)Gal(b1-4)GlcNAc(b1-3)[Fuc(a1-2)Gal(b1-4)GlcNAc(b1-6)]GalNAc
# Procedure, shortened: as §1
# [29] = biological target: Fuc(a1-2)Gal(b1-4)GlcNAc(b1-3)[Fuc(a1-3)[Gal(b1-4)]GlcNAc(b1-6)]Gal(b1-4)Glc
# Procedure, shortened: as §1
# [30] = biological target: Fuc(a1-2)Gal(b1-4)GlcNAc(b1-6)GalNAc
# Procedure, shortened: as §1
# [31] = biological target: Fuc(a1-2)Gal(b1-4)GlcNAc6S
# Procedure, shortened: as §1
binder,measurement,setting,value
B1,glycan array binding signal (z-score),Fuc(a1-2)Gal,-0.236
same,glycan array binding signal (z-score),Fuc(a1-2)Gal(b1-3)GalNAc,-0.049
same,glycan array binding signal (z-score),[1],-0.104
same,glycan array binding signal (z-score),[2],-0.109
same,glycan array binding signal (z-score),[3],-0.15
same,glycan array binding signal (z-score),[4],-0.09
same,glycan array binding signal (z-score),[5],-0.163
same,glycan array binding signal (z-score),Fuc(a1-2)Gal(b1-3)GlcNAc,-0.14
same,glycan array binding signal (z-score),[6],-0.018
same,glycan array binding signal (z-score),[7],-0.05
same,glycan array binding signal (z-score),[8],-0.106
same,glycan array binding signal (z-score),[9],-0.084
same,glycan array binding signal (z-score),[10],-0.089
same,glycan array binding signal (z-score),[11],0.013
same,glycan array binding signal (z-score),[12],-0.147
same,glycan array binding signal (z-score),[13],0.12
same,glycan array binding signal (z-score),[14],-0.103
same,glycan array binding signal (z-score),[15],0.02
same,glycan array binding signal (z-score),[16],0.122
same,glycan array binding signal (z-score),[17],0.09
same,glycan array binding signal (z-score),[18],-0.006
same,glycan array binding signal (z-score),[19],0.182
same,glycan array binding signal (z-score),Fuc(a1-2)Gal(b1-4)Glc,0
same,glycan array binding signal (z-score),Fuc(a1-2)Gal(b1-4)Glc6S,-0.153
same,glycan array binding signal (z-score),Fuc(a1-2)Gal(b1-4)GlcNAc,-0.065
same,glycan array binding signal (z-score),[20],0.155
same,glycan array binding signal (z-score),[21],-0.14
same,glycan array binding signal (z-score),[22],0.018
same,glycan array binding signal (z-score),[23],-0.079
same,glycan array binding signal (z-score),[24],-0.14
same,glycan array binding signal (z-score),[25],0.094
same,glycan array binding signal (z-score),[26],-0.144
same,glycan array binding signal (z-score),[27],0.35
same,glycan array binding signal (z-score),[28],-0.023
same,glycan array binding signal (z-score),[29],-0.103
same,glycan array binding signal (z-score),[30],-0.084
same,glycan array binding signal (z-score),[31],-0.148
